Results published in PubChem BioAssay AID686971 (National Center for Advancing Translational Sciences (NCATS), 2013).
The campaign covered roughly 360,000 compounds. About 7,500 (2.1%) were called active. The inconclusive results got no clear call from the source; some entries with a clear call stand among them for comparison. The call rests on the fitted dose curve; in most records, active means well fitted cell-killing curve with a large enough effect; inconclusive means small, poorly fitted or top-dose-only effect, or effect the other way, or another doubt; inactive means no such curve, though single readings can be large or run the other way. No potency is given beside an inconclusive call; the fits are too rough.

assay: qHTS for induction of synthetic lethality in tumor cells producing 2HG: qHTS for the HT-1080-IDH1KD cell line; conditions: HT-1080 IDH1 knockdown viability, ATP luminescence, 48 h; activity, negative = toxicity: at 46.1 µM (top of the series) unless noted;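 on activity, negative = toxicity: 0% = DMSO wells and -100% = cell-free medium wells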
In short: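 Cytotoxicity counter-line: IDH1KD HT-1080, 48 h, CellTiter-Glo. Curves classed by r2, magnitude and activity.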
Potency means the concentration at half of the fitted maximal effect; tags describe the fitted curve by direction and shape.

SMILES | Potency | activity, negative = toxicity
O=C(NCc1ccon1)C1CCC(=O)N(CCc2cccc(F)c2)C1 (centres undefined) | inactive | 
Nc1c2c(=O)oc(-c3ccccc3)cc2nn1-c1ccccc1 | inconclusive [cytotoxic, single point] | 
O=C(Nc1ccc(Cl)cc1C(=O)Nc1ccncc1)c1ccco1 | inconclusive [cytotoxic, single point] | 
CCOC(=O)c1c(NC(=O)CCl)sc(CN(C)C)c1-c1ccccc1 | inconclusive [cytotoxic, single point] | 
Cc1cc(C)nc(Nc2nc(C(N)Cc3ccc(F)cc3)cs2)n1 (centres undefined) | active: 13 µM | 
Cc1ccc(S(=O)(=O)CCC(=O)Nc2ccc(Br)cc2)cc1 | inconclusive [cytotoxic, single point] | 
COc1ccc(C2NC(=O)NC3=C2CCc2ccccc23)cc1 (centres undefined) | active: 18.4 µM | 
CCCCc1c(-c2ccccc2OC)ncn1CCc1ccc(Cl)cc1 | inconclusive [cytotoxic, single point] | 
C[C@H]1CN(C2CCCCC2)C(=O)[C@@H]1CC(=O)NCc1ccccc1 | inactive | 
COc1ccc(-n2c(SCC(=O)C(C)(C)C)nc3c(sc(=S)n3-c3ccccc3)c2=O)c(OC)c1 | inactive | 
Cc1cc(S(=O)(=O)N2CCN=C2c2ccccc2)ccc1F | inactive | 
CCOCC(=O)Nc1c(C(=O)Nc2ccc3c(c2)OCCO3)oc2ccccc12 | inconclusive [cytotoxic, single point] | 
COc1ccc2oc(=O)c(-c3nnc(NCc4ccco4)s3)cc2c1 | inconclusive [cytotoxic, single point] | 
O=C(O)c1ccccc1C(=O)NNc1ccc(Cl)cc1 | inconclusive [cytotoxic, full curve] | 
Cn1c(-c2ccco2)nc2cc3ccccc3cc21 | inconclusive [cytotoxic, single point] | 
O=C(Nc1nnc(Cc2ccc(Cl)cc2)s1)c1ccncc1 | inconclusive [cytotoxic, single point] | 
N#Cc1cn(Cc2ccccc2)c2ccccc12 | inconclusive [cytotoxic, partial curve] | 
O=C(COc1cccc(Oc2ccccc2)c1)Nc1ccc(SC(F)F)cc1 | inconclusive [cytotoxic, partial curve, poor fit] | 
O=C(Cc1ccc(-c2ccccc2)cc1)NCc1cccnc1 | active: 8.2 µM | 
Cc1ccccc1NC(=O)c1ccc(NS(=O)(=O)c2cc(C(C)(C)C)cc(C)c2C)cc1 | inconclusive [cytotoxic, partial curve] | 
O=C(NC(Cc1ccc2c(c1)OCO2)C(=O)NC(Cc1ccccc1)C(=O)O)c1ccccc1 (centres undefined) | inactive | 
CCc1ccc(NS(=O)(=O)c2ccc3[nH]cc(C(=O)N4CCc5ccccc54)c(=O)c3c2)cc1 | inconclusive [cytotoxic, single point] | 
Clc1ccc(CSc2ccc(-c3ccccn3)nn2)cc1 | inconclusive [cytotoxic, partial curve] | 
CCCCOc1c(Br)cc(CNCCCN2CCOCC2)cc1OC | inconclusive [cytotoxic, partial curve] | 
CCN1C(=O)[C@H]2[C@@H](c3ccc(C)cc3)N3C(=O)N(c4ccccc4)C(=O)[C@@]3(C)[C@H]2C1=O | inactive | 

SMILES | Potency | activity, negative = toxicity
COc1ccc(S(=O)(=O)Cc2ccccc2)cc1N | inconclusive [cytotoxic, partial curve] | 
Cc1cccc(NC(=S)/N=C(\N)Nc2nc(C)c3ccc(C)cc3n2)c1 | inconclusive [cytotoxic, single point] | 
COc1ccc2c(c1)C(O)C(CO)C(C(=O)O)C2 (centres undefined) | inactive | 
Cc1ccc(NC(=O)COC(=O)CN2C(=O)NC3(CCCC3)C2=O)cc1Cl | inactive | 
Cc1[nH]nc(-c2ccc(OCc3cnn(-c4ccccc4)c3)cc2O)c1Oc1ccc(Cl)cc1 | inconclusive [cytotoxic, single point] | 
O=C1/C(=C/c2cccs2)SC(=S)N1C1CCS(=O)(=O)C1 (centres undefined) | inconclusive [cytotoxic, single point] | 
CCn1c(CNC(=O)c2ccccc2)nc2ccccc21 | inconclusive [cytotoxic, full curve, poor fit] | 
COc1cccc(NC(=O)N2CCCC(C(=O)Nc3ccccc3OC)C2)c1 (centres undefined) | inactive | 
CCC1CCCCN1S(=O)(=O)c1ccc(C(=O)N(CCCN(C)C)c2nc3cc4c(cc3s2)OCO4)cc1 (centres undefined) | inconclusive [cytotoxic, single point] | 
COC1(OC)C(/C=C/c2ccc(C)cc2)C(C#N)(C#N)C1(OC)OC (centres undefined) | inconclusive [cytotoxic, full curve] | 
O=C(CSc1ncnc2c1cnn2-c1ccc(F)cc1)NCC1CCCO1 (centres undefined) | inactive | 
Cc1[nH][nH]c(=O)c1C(c1c(C)[nH][nH]c1=O)c1cn(Cc2ccc(Cl)c(Cl)c2)c2ccccc12 | inconclusive [cytotoxic, partial curve] | 
COc1ccc(Cc2nnc(SCC(=O)c3c(N)n(C4CC4)c(=O)[nH]c3=O)o2)cc1 | inactive | 
N#CC1=C(N)Oc2cc(N)ccc2C1c1cccc(F)c1 (centres undefined) | active: 2.31 µM | 
CCOc1cc(N2CCOCC2)c(OCC)cc1NC(=O)c1ccccc1 | inactive | 
O=C(CN1CCN(Cc2ccccc2)CC1)N/N=C/c1ccc(Br)s1 | inconclusive [cytotoxic, partial curve, poor fit] | 
COc1ccc(C(=O)NNC(=S)NC(=O)c2ccc(Cl)cc2)cc1 | inconclusive [cytotoxic, single point] | 
COc1ccc(/C=C2\SC(=S)N(CCC(=O)Nc3cccc(O)c3)C2=O)cc1 | inconclusive [cytotoxic, single point] | 
CCCCC[n+]1ccn(C2=C([O-])c3ccccc3C(=O)/C2=N\S(=O)(=O)c2ccccc2)c1 | active: 18.4 µM | 
O=C1c2ccccc2C(=O)C1c1ccc(Cl)cc1 | inactive | 
O=[N+]([O-])c1ccc(CP(=O)(c2ccccc2)c2ccccc2)cc1 | inactive | 
COc1ccc(-c2cn3cccnc3n2)cc1NC(=O)C1CCCC1 | inconclusive [rising, single point] | 
CSCCC1NC(=O)N(CC(=O)Nc2cccc(S(=O)(=O)N3CCCCCC3)c2)C1=O (centres undefined) | inconclusive [cytotoxic, single point] | 
Cc1ccc(Nc2nc(N)nc(CN3CCCCCC3)n2)cc1 | inactive | 
CC(C)NC(=O)c1ccc2c3n(nc2c1)-c1ccccc1CO3 | inconclusive [cytotoxic, single point] | 

SMILES | Potency | activity, negative = toxicity
CN=C1SC(CC(=O)Nc2sc(C)c(C)c2C(=O)OC)C(=O)N1C (centres undefined) | inactive | 
C=CCN1C(=O)CSC1=Nc1ccc(O)cc1 | inconclusive [cytotoxic, single point] | 
Cn1c(CCNC(=O)c2ccco2)nc2cc(NS(=O)(=O)c3ccccc3)ccc21 | inactive | 
OCCSc1nnc(Nc2ccccc2)s1 | inactive | 
OC(COCC(F)(F)C(F)(F)C(F)(F)C(F)F)Cn1c2ccc(Cl)cc2c2cc(Cl)ccc21 (centres undefined) | inconclusive [cytotoxic, single point] | 
O=C1NC(=S)S/C1=C\C=C\c1ccc([N+](=O)[O-])o1 | active: 5.17 µM | 
Cc1cc(C(=O)N/N=C/c2ccc(O)c(O)c2O)c(C)n1-c1ccccc1 | inconclusive [cytotoxic, partial curve] | 
CC(=O)Nc1cccc(NC(=O)CSc2ccc(-c3ccccn3)nn2)c1 | inconclusive [cytotoxic, partial curve] | 
COc1ccc2c(c1)C(C)=CC(C)(C)N2S(=O)(=O)c1ccc(Br)cc1 | active: 2.31 µM | 
O=C/C(=C\Nc1ccc(Cl)cn1)c1nc2cc(Cl)ccc2o1 | inactive | 
COc1cc(/C=C2/SC(=O)NC2=O)ccc1OC(=O)c1ccco1 | inactive | 
Cc1ccc(-c2nc(-c3ccccn3)no2)cc1 | active: 6.51 µM | 
CC(C)c1nc(SCC(=O)NC2CCCC2)c2c(=O)n(C)c(=O)n(C)c2n1 | inactive | 
O=C1C(=O)c2ccccc2C(O)=C1CCCCl | inconclusive [cytotoxic, single point] | 
O=C(NC1CCCCC1)C(c1cccc2ccccc12)n1c(=O)c(-c2cc3ccccc3[nH]2)nc2ccccc21 (centres undefined) | active: 18.4 µM | 
O=C(NNc1ccccc1F)c1cccs1 | inconclusive [cytotoxic, partial curve, poor fit] | 
CN1/C(=C\C(=S)NC(=O)c2cccc(Br)c2)C(C)(C)c2ccccc21 |  | inconclusive: -31.8% [cytotoxic]
COc1ccc(O)c(C=Nc2cc(C)on2)c1 | inconclusive [cytotoxic, single point] | 
O=C(N/N=C/c1ccc[nH]1)c1ccc(COc2cccc3cccnc23)cc1 | active: 5.17 µM | 
CCCCCc1c(-c2cccc(Br)c2)ncn1CCc1ccccc1OC | active: 18.4 µM | 
Cc1cc(N2Cc3ccccc3C2)ccc1C=O | inconclusive [cytotoxic, partial curve] | 
Cc1nn(Cc2cccc(C(=O)Nc3ccn(Cc4c(F)c(F)cc(F)c4F)n3)c2)c(C)c1[N+](=O)[O-] | inconclusive [cytotoxic, single point] | 
CC1CCCCC12NC(=O)N(CC(=O)Nc1ccccc1F)C2=O (centres undefined) | inactive | 
Cc1ccc(NC(=O)Cn2c(O)c(N=NC(=O)c3cc4ccccc4cc3O)c3ccccc32)cc1 | inconclusive [cytotoxic, single point] | 
